Experimental data from the supplement of paper PMC10126150.
Values marked as one replicate rest on one cluster of the flow cell; about a third of the high ones do not repeat.

Each sequence was assayed on ATP (assay: switch fluorescence ratio, 500 uM ATP over buffer (Cy3 cluster intensity, sum of 5 cycles each) (fold (ratio)); higher = stronger signal-on switching upon ATP binding; sequences stand for … in TCGTCGGCAGCGTCAGATGTGTATAAGAGACAGTTTTTTTTTTTTTTTTTTTTTTTTT…TC). Conditions: aptamer strand: ATP DNA aptamer (quencher-CACCTGGGGGAGTATTGCGGAGGAAGG + anchor), 100 nM annealed; ATP concentration: 500 uM; one replicate.
Method in brief: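 Values give the fluorescence ratio for each switch-domain sequence, averaged from per-cluster ratios of summed target-cycle to summed buffer-cycle Cy3 intensity. The Cy3-labelled switching-strand clusters sat on a modified Illumina MiSeq flow-cell, were annealed to 100 nM quencher-labelled ATP aptamer, and were imaged in selection buffer, then after 15 min with 500 uM ATP at 22 °C. Five cycles ran with NaOH stripping and re-annealing between them, and clusters outside 100-1000 RFU were excluded.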
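Also: ATP exposure 15 min at 22 °C before imaging.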

Sequence | switch fluorescence ratio
GGGGCGCATG | 1.09
GGGGCGTCGG | 0.971
GGGGCTAGCA | 1.05
GGGGCTCTTG | 1.01
GGGGCTTACA | 0.978
GGGGGAGTT | 0.973
GGGGGCCCTA | 0.976
GGGGGGCTT | 0.979
GGGGGTCCA | 0.968
GGGGTAAACG | 1.1
GGGGTACGTC | 1
GGGGTAGCCG | 0.993
GGGGTAGTAT | 0.971
GGGGTAGTGT | 0.992
GGGGTATAAA | 0.994
GGGGTATGT | 1.01
GGGGTCATGA | 0.935
GGGGTCGCCC | 1.02
GGGGTGGCTT | 0.996
GGGTAAGGCC | 0.958
GGGTAGCACG | 1.02
GGGTAGCGAG | 0.929
GGGTAGCGGA | 0.969
GGGTAGGCCG | 0.887
GGGTAGGTAT | 1.11
GGGTATCAAA | 1

Sequence | switch fluorescence ratio
GGGTATCAGC | 1
GGGTCCCTGG | 1.1
GGGTCGCAAG | 0.966
GGGTCGCGGC | 1.03
GGGTCGGCGT | 1.05
GGGTCTGTTT | 0.948
GGGTGGATCC | 1.03
GGGTGGCCAT | 1
GGGTGGGAAC | 1.03
GGGTGGGCGA | 0.971
GGGTGGTAG | 1.02
GGGTGGTATC | 0.97
GGGTGTAATA | 1.03
GGGTGTGAAG | 1.03
GGGTGTTAGG | 1
GGGTTAAGGT | 0.99
GGGTTAATAG | 0.998
GGGTTACGG | 0.955
GGGTTAGTCA | 0.956
GGGTTAGTGA | 0.976
GGGTTATT | 0.985
GGGTTCGCGA | 1.03
GGGTTCTAAG | 1.01
GGGTTGACGT | 1.05
GGGTTGCAAG | 0.965
GGGTTGGC | 0.899

Sequence | switch fluorescence ratio
GGGTTGTACT | 0.984
GGGTTGTGTC | 0.892
GGGTTTCTGC | 1.02
GGGTTTTCCC | 1.08
GGTAAACTGA | 1.05
GGTAAGGTGT | 1.25
GGTAAGTATG | 0.991
GGTAATCAGG | 1.02
GGTAATGTTG | 1.01
GGTAATTAGC | 0.992
GGTACAGTTG | 0.974
GGTACCATGG | 1.01
GGTACGTCCA | 1.05
GGTACTCATA | 1.01
GGTACTCCCG | 1.31
GGTACTGGGC | 1.04
GGTACTGTCT | 1.03
GGTAGAGCAA | 1.49
GGTAGGGTAG | 1.02
GGTAGGTAAT | 1.02
GGTAGTGATG | 0.979
GGTATAAGAG | 0.945
GGTATACAAC | 1.02
GGTATACCGG | 1
GGTATACCTT | 1.04
GGTATAGCTG | 1.02

Sequence | switch fluorescence ratio
GGTATATCTA | 1
GGTATCGTC | 0.979
GGTATGAATA | 1.03
GGTATTGCA | 0.985
GGTATTGCAG | 0.946
GGTCAAAAAT | 0.999
GGTCACTACA | 0.999
GGTCAGCGCG | 0.979
GGTCAGGACT | 0.978
GGTCATATTA | 0.977
GGTCATCGGC | 1.05
GGTCCAACGT | 1.04
GGTCCATAGC | 1.07
GGTCCCATAC | 1.45
GGTCCCTCGG | 1.01
GGTCCCTTGC | 1.33
GGTCCGAGCG | 1.1
GGTCCGAGGA | 0.954
GGTCCGGAGT | 1.07
GGTCCTTGTG | 0.985
GGTCGAGACG | 0.962
GGTCGCAATA | 1.09
GGTCGGAGCA | 1.02
GGTCGGCAAA | 1.17
GGTCGGGTGT | 0.991
GGTCGTAGCT | 0.959

Sequence | switch fluorescence ratio
GGTCGTTACT | 1
GGTCGTTATC | 0.982
GGTCTACGCG | 1
GGTCTAGTGT | 0.987
GGTCTCTCTC | 1.02
GGTCTTCTG | 1.07
GGTCTTGCTC | 1.02
GGTCTTTAAT | 0.971
GGTCTTTTTG | 0.994
GGTGAAAGT | 1
GGTGAGTATG | 0.987
GGTGAGTGTC | 1.01
GGTGATGCTA | 1.01
GGTGCAGAAA | 0.993
GGTGCAGGTT | 0.975
GGTGCGGTGG | 0.992
GGTGCTCGCA | 1.01
GGTGCTCGCT | 1.01
GGTGCTTGAA | 0.974
GGTGGATAGG | 0.965
GGTGGCTCCC | 0.985
GGTGGCTTAT | 0.989
GGTGGGATAA | 0.978
GGTGGGGAGG | 1.02
GGTGGTAAAT | 1
GGTGTAGCCC | 0.992

Sequence | switch fluorescence ratio
GGTGTCACCT | 0.986
GGTGTCAGGA | 1.04
GGTGTGGGA | 0.989
GGTGTGTTGA | 1.04
GGTGTTACCC | 0.99
GGTGTTACGG | 0.994
GGTGTTGCCG | 1.09
GGTTAAGATT | 0.958
GGTTAATCGA | 1.01
GGTTACTTT | 1.01
GGTTAGGGCC | 1.2
GGTTAGTTTG | 1.03
GGTTCAAAGG | 0.974
GGTTCATCCG | 1.16
GGTTCATGAC | 1.03
GGTTCGCCGC | 0.974
GGTTCGGGCG | 1.02
GGTTGACGCC | 0.98
GGTTGAGTAG | 0.987
GGTTGCCGAC | 0.962
GGTTGCCTAA | 1.01
GGTTGCGTTA | 1.02
GGTTGGAGCT | 0.987
GGTTGGAGGA | 1.03
GGTTGGATAG | 0.973
GGTTGTATAG | 0.948

Sequence | switch fluorescence ratio
GGTTGTATCA | 0.978
GGTTGTGGAT | 0.975
GGTTGTTTGC | 0.997
GGTTTCACCA | 1
GGTTTCGTGG | 0.931
GGTTTGAGAT | 0.966
GGTTTTAGGC | 0.983
GGTTTTGAAA | 0.977
GTAAAACTGC | 1.07
GTAAAAGAGT | 0.995
GTAAAATTTG | 0.993
GTAAACCTGT | 1.05
GTAACACTAT | 0.989
GTAAGATCCA | 1
GTAAGCATG | 0.965
GTAAGGCTTT | 1.02
GTAAGGGTAC | 1.02
GTAATATGTA | 1.02
GTAATCAATT | 0.963
GTAATCCGGA | 0.992
GTAATCGATG | 1.02
GTAATCGCTT | 0.978
GTAATCTAAC | 1.02
GTAATTATC | 1.04
GTAATTCGAC | 1.11
GTACACTCTT | 1.02

Sequence | switch fluorescence ratio
GTACATTGCG | 1.05
GTACCCCAGA | 1.26
GTACCCCCTC | 1.04
GTACCGCCAG | 1.02
GTACCTGCCT | 1.54
GTACGCATGG | 1.6
GTACGCGGCT | 0.994
GTACGGATTT | 1
GTACGGGACT | 1.28
GTACGTAGAC | 1.26
GTACTACAGT | 1.04
GTACTACGGA | 0.99
GTACTCAGG | 1.12
GTACTGCCTA | 1.01
GTACTTTGTG | 0.992
GTACTTTTG | 1
GTAGAAATGC | 5.12
GTAGAGCCGG | 1.02
GTAGAGCTCG | 0.999
